# Reference: the supplement of paper PMC8728848
# The list shows a part of the results.
# B1: LCA (Lens culinaris), P02870 (protein)
# chain: MASLQTQMISFYLIFLSILLTTIFFFKVNSTETTSFSITKFSPDQKNLIFQGDGYTTKGKLTLTKAVKSTVGRALYSTPIHIWDRDTGNVANFVTSFTFVIDAPSSYNVADEFTFFIAPVDTKPQTGGGYLGVFNSKEYDKTSQTVAVEFDTFYNAAWDPSNKERHIGIDVNSIKSVNTKSWNLQNGERANVVIAFNAATNVLTVTLTYPNSLEEENVTSYTLNEVVPLKDVVPEWVRIGFSATTGAEFAAHEVHSWSFHSELGGTSSSKQAADA
# Legend:
# Assay in all cases: glycan array binding signal (z-score within array); higher = stronger binding
# Settings in all cases: glycan notation: IUPAC condensed, linker removed
# [1] = biological target: GlcNAc(b1-3)Fuc
# Outline: (§1)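 The Consortium for Functional Glycomics database supplied 3228 glycan arrays, of which those lacking an available protein sequence were dropped. The binding signal, a within-array Z-score, was averaged across arrays of the same protein sequence and across linkers. Negative scores can be read as non-binding.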
# [2] = biological target: GlcNAc(b1-3)Gal
# Outline: as §1
# [3] = biological target: GlcNAc(b1-3)Gal(b1-3)GalNAc
# Outline: as §1
# [4] = biological target: GlcNAc(b1-3)Gal(b1-4)Glc
# Outline: as §1
# [5] = biological target: GlcNAc(b1-3)Gal(b1-4)GlcNAc
# Outline: as §1
# [6] = biological target: GlcNAc(b1-3)Gal(b1-4)GlcNAc(b1-2)Man(a1-3)[GlcNAc(b1-3)Gal(b1-4)GlcNAc(b1-2)Man(a1-6)]Man(b1-4)GlcNAc(b1-4)GlcNAc
# Outline: as §1
# [7] = biological target: GlcNAc(b1-3)Gal(b1-4)GlcNAc(b1-2)Man(a1-3)[GlcNAc(b1-3)Gal(b1-4)GlcNAc(b1-2)Man(a1-6)]Man(b1-4)GlcNAc(b1-4)[Fuc(a1-6)]GlcNAc
# Outline: as §1
# [8] = biological target: GlcNAc(b1-3)Gal(b1-4)GlcNAc(b1-2)[GlcNAc(b1-3)Gal(b1-4)GlcNAc(b1-6)]Man(a1-6)[GlcNAc(b1-3)Gal(b1-4)GlcNAc(b1-2)Man(a1-3)]Man(b1-4)GlcNAc(b1-4)GlcNAc
# Outline: as §1
# [9] = biological target: GlcNAc(b1-3)Gal(b1-4)GlcNAc(b1-3)Gal(b1-4)GlcNAc
# Outline: as §1
# [10] = biological target: GlcNAc(b1-3)Gal(b1-4)GlcNAc(b1-3)Gal(b1-4)GlcNAc(b1-2)Man(a1-3)[GlcNAc(b1-3)Gal(b1-4)GlcNAc(b1-3)Gal(b1-4)GlcNAc(b1-2)Man(a1-6)]Man(b1-4)GlcNAc(b1-4)GlcNAc
# Outline: as §1
# [11] = biological target: GlcNAc(b1-3)Gal(b1-4)GlcNAc(b1-3)Gal(b1-4)GlcNAc(b1-2)Man(a1-3)[GlcNAc(b1-3)Gal(b1-4)GlcNAc(b1-3)Gal(b1-4)GlcNAc(b1-2)Man(a1-6)]Man(b1-4)GlcNAc(b1-4)[Fuc(a1-6)]GlcNAc
# Outline: as §1
# [12] = biological target: GlcNAc(b1-3)Gal(b1-4)GlcNAc(b1-3)Gal(b1-4)GlcNAc(b1-2)[GlcNAc(b1-3)Gal(b1-4)GlcNAc(b1-3)Gal(b1-4)GlcNAc(b1-6)]Man(a1-6)[GlcNAc(b1-3)Gal(b1-4)GlcNAc(b1-3)Gal(b1-4)GlcNAc(b1-2)Man(a1-3)]Man(b1-4)GlcNAc(b1-4)[Fuc(a1-6)]GlcNAc
# Outline: as §1
# [13] = biological target: GlcNAc(b1-3)Gal(b1-4)GlcNAc(b1-3)Gal(b1-4)GlcNAc(b1-3)Gal(b1-4)GlcNAc(b1-2)Man(a1-3)[GlcNAc(b1-3)Gal(b1-4)GlcNAc(b1-3)Gal(b1-4)GlcNAc(b1-3)Gal(b1-4)GlcNAc(b1-2)Man(a1-6)]Man(b1-4)GlcNAc(b1-4)GlcNAc
# Outline: as §1
# [14] = biological target: GlcNAc(b1-3)Gal(b1-4)GlcNAc(b1-3)Gal(b1-4)GlcNAc(b1-3)Gal(b1-4)GlcNAc(b1-2)Man(a1-3)[GlcNAc(b1-3)Gal(b1-4)GlcNAc(b1-3)Gal(b1-4)GlcNAc(b1-3)Gal(b1-4)GlcNAc(b1-2)Man(a1-6)]Man(b1-4)GlcNAc(b1-4)[Fuc(a1-6)]GlcNAc
# Outline: as §1
# [15] = biological target: GlcNAc(b1-3)Gal(b1-4)GlcNAc(b1-3)Gal(b1-4)GlcNAc(b1-3)Gal(b1-4)GlcNAc(b1-2)[GlcNAc(b1-3)Gal(b1-4)GlcNAc(b1-3)Gal(b1-4)GlcNAc(b1-3)Gal(b1-4)GlcNAc(b1-6)]Man(a1-6)[GlcNAc(b1-3)Gal(b1-4)GlcNAc(b1-3)Gal(b1-4)GlcNAc(b1-3)Gal(b1-4)GlcNAc(b1-2)Man(a1-3)]Man(b1-4)GlcNAc(b1-4)[Fuc(a1-6)]GlcNAc
# Outline: as §1
# [16] = biological target: GlcNAc(b1-3)Gal(b1-4)GlcNAc(b1-3)Gal(b1-4)GlcNAc(b1-3)Gal(b1-4)GlcNAc(b1-3)Gal(b1-4)GlcNAc(b1-2)Man(a1-3)[GlcNAc(b1-3)Gal(b1-4)GlcNAc(b1-3)Gal(b1-4)GlcNAc(b1-3)Gal(b1-4)GlcNAc(b1-3)Gal(b1-4)GlcNAc(b1-2)Man(a1-6)]Man(b1-4)GlcNAc(b1-4)GlcNAc
# Outline: as §1
# [17] = biological target: GlcNAc(b1-3)Gal(b1-4)GlcNAc(b1-3)Gal(b1-4)GlcNAc(b1-3)Gal(b1-4)GlcNAc(b1-3)Gal(b1-4)GlcNAc(b1-2)Man(a1-3)[GlcNAc(b1-3)Gal(b1-4)GlcNAc(b1-3)Gal(b1-4)GlcNAc(b1-3)Gal(b1-4)GlcNAc(b1-3)Gal(b1-4)GlcNAc(b1-2)Man(a1-6)]Man(b1-4)GlcNAc(b1-4)[Fuc(a1-6)]GlcNAc
# Outline: as §1
# [18] = biological target: GlcNAc(b1-3)Gal(b1-4)GlcNAc(b1-3)Gal(b1-4)GlcNAc(b1-3)Gal(b1-4)GlcNAc(b1-3)Gal(b1-4)GlcNAc(b1-2)[GlcNAc(b1-3)Gal(b1-4)GlcNAc(b1-3)Gal(b1-4)GlcNAc(b1-3)Gal(b1-4)GlcNAc(b1-3)Gal(b1-4)GlcNAc(b1-6)]Man(a1-6)[GlcNAc(b1-3)Gal(b1-4)GlcNAc(b1-3)Gal(b1-4)GlcNAc(b1-3)Gal(b1-4)GlcNAc(b1-3)Gal(b1-4)GlcNAc(b1-2)Man(a1-3)]Man(b1-4)GlcNAc(b1-4)[Fuc(a1-6)]GlcNAc
# Outline: as §1
# [19] = biological target: GlcNAc(b1-3)Gal(b1-4)GlcNAc(b1-3)Gal(b1-4)GlcNAc(b1-3)GalNAc
# Outline: as §1
# [20] = biological target: GlcNAc(b1-3)Gal(b1-4)GlcNAc(b1-3)GalNAc
# Outline: as §1
# [21] = biological target: GlcNAc(b1-3)Gal(b1-4)GlcNAc(b1-3)[GlcNAc(b1-3)Gal(b1-4)GlcNAc(b1-3)]GalNAc
# Outline: as §1
# [22] = biological target: GlcNAc(b1-3)Gal(b1-4)GlcNAc(b1-6)[Gal(b1-3)]GalNAc
# Outline: as §1
# [23] = biological target: GlcNAc(b1-3)Gal(b1-4)GlcNAc(b1-6)[GlcNAc(b1-3)Gal(b1-3)]GalNAc
# Outline: as §1
binder,measurement,setting,value
B1,glycan array binding signal (z-score),[1],-0.226
same,glycan array binding signal (z-score),[2],-0.224
same,glycan array binding signal (z-score),[3],-0.217
same,glycan array binding signal (z-score),[4],-0.234
same,glycan array binding signal (z-score),[5],-0.216
same,glycan array binding signal (z-score),[6],-0.201
same,glycan array binding signal (z-score),[7],5.29
same,glycan array binding signal (z-score),[8],-0.118
same,glycan array binding signal (z-score),[9],-0.199
same,glycan array binding signal (z-score),[10],0.031
same,glycan array binding signal (z-score),[11],3.29
same,glycan array binding signal (z-score),[12],2.72
same,glycan array binding signal (z-score),[13],-0.199
same,glycan array binding signal (z-score),[14],3.65
same,glycan array binding signal (z-score),[15],2.77
same,glycan array binding signal (z-score),[16],-0.19
same,glycan array binding signal (z-score),[17],3.94
same,glycan array binding signal (z-score),[18],2.76
same,glycan array binding signal (z-score),[19],-0.239
same,glycan array binding signal (z-score),[20],-0.255
same,glycan array binding signal (z-score),[21],-0.251
same,glycan array binding signal (z-score),[22],-0.232
same,glycan array binding signal (z-score),[23],-0.253
